{
  "source": "the supplement of paper PMC11417369",
  "note": "± gives the standard deviation of the averaged measurements. Some of the results follow.",
  "data": [
    {"tested_on": "PfAP2-LT AP2 domain (GST-tagged)", "assay": "gcPBM binding intensity (ln(normalized median fluorescence intensity)); higher = stronger DNA binding", "outline": "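An Agilent 4 × 180k array carrying primer-extended double-stranded 36-bp intergenic genomic probes and negative controls received GST-tagged P. falciparum DNA-binding domains expressed in E. coli, about 25 μg on average, for 1 h. The binding buffer contained 1× PBS, 1% milk, 0.2 mg/ml BSA, 0.5% salmon testes DNA and 0.03% Triton X-100. Binding intensity is the top Masliner-normalised natural-log median intensity across replicate spots of either probe orientation, read after Alexa488 anti-GST antibody staining and a 488 nm scan.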", "values": [
      {"sequence": "ATTAGGTATTTTTTTTGTACATATTATATAATGTGA [XGTACX_site3815]", "gcPBM binding intensity (ln)": "8.75 ± 0.4"},
      {"sequence": "CACAAAAATTTATACACACACATATAAAATATAGAT [CACACA_site6218]", "gcPBM binding intensity (ln)": "9.45 ± 0.38"},
      {"sequence": "TTCACTATACAAAGGTGTACTTAATTTTGTCCCATT [XGTACX_site7483]", "gcPBM binding intensity (ln)": "8.78 ± 0.5"},
      {"sequence": "AGTTATTACACACAAACATGCATTAATATCAAAAAA [TGCATGCA_site63]", "gcPBM binding intensity (ln)": "9.19 ± 0.46"},
      {"sequence": "AATATAAAATAGAAAAATGAAAAAAAAAAAAAGGGT [CACACA_negctrl_site1263]", "gcPBM binding intensity (ln)": "9.14 ± 0.62"},
      {"sequence": "TGTTTGATGGTACACGTACACACCTTGCAAATATTT [CACACA_site888]", "gcPBM binding intensity (ln)": "9.13 ± 0.4"},
      {"sequence": "TATATATATTTTAACACACACATATATATATTTATA [CACACA_site2765]", "gcPBM binding intensity (ln)": "9.01 ± 0.37"},
      {"sequence": "CAATAAATAATAAATACATGCAAGTATGAAGATATA [TGCATGCA_site859]", "gcPBM binding intensity (ln)": "9.12 ± 0.44"},
      {"sequence": "AGTGGGATTTTTAATTGTACATAAATAATATCATAA [XGTACX_site4163]", "gcPBM binding intensity (ln)": "8.45 ± 0.33"},
      {"sequence": "CATGTTATATATATATGTACTAAAAATATAATATAA [XGTACX_site1978]", "gcPBM binding intensity (ln)": "8.61 ± 0.42"},
      {"sequence": "TTTTTTTTTTTTGGTAGTACATAAATATTTTATGGA [XGTACX_site6851]", "gcPBM binding intensity (ln)": "8.3 ± 0.46"},
      {"sequence": "AATAAGAATTAAAAATGTACAAAAAAATGTATTTAT [XGTACX_site8005]", "gcPBM binding intensity (ln)": "8.79 ± 0.43"},
      {"sequence": "AAGTATAAAATATTTTGTACTTAAAAAATTATATGG [XGTACX_site2180]", "gcPBM binding intensity (ln)": "8.46 ± 0.42"},
      {"sequence": "AACAAATTTTTTATTAAACACACAAACATATATATA [CACACA_site8588]", "gcPBM binding intensity (ln)": "8.66 ± 0.44"},
      {"sequence": "TGTGAATATATCTTTAAAAAGGATAAATAATAATTT [CACACA_negctrl_site507]", "gcPBM binding intensity (ln)": "8.47 ± 0.52"},
      {"sequence": "GCTCATTGAAATTATACACACCAAATATATAAATAT [CACACA_site5385]", "gcPBM binding intensity (ln)": "8.89 ± 0.35"},
      {"sequence": "AAAAAAAAAAAGATAAATACAAGTTACACAAAAAAA [GTGCAC_negctrl_site664]", "gcPBM binding intensity (ln)": "8.57 ± 0.63"},
      {"sequence": "ACGTTGCGACGCAAGGTGCTTATTTTCTTATAAATA", "gcPBM binding intensity (ln)": "8.46 ± 0.4"},
      {"sequence": "ATATAAAATAAAAAAAAAAAAAAAAAAAAAAAAAAA [CACACA_negctrl_site1234]", "gcPBM binding intensity (ln)": "8.22 ± 0.45"},
      {"sequence": "TTTTTGTATCCTTTTAATATTAAATAAAAGGAATGT [CACACA_negctrl_site1468]", "gcPBM binding intensity (ln)": "8.23 ± 0.45"},
      {"sequence": "TTAATGTTTGAAAGAGTGCACATAACAAAAAAAAAA [GTGCAC_site9623]", "gcPBM binding intensity (ln)": "8.79 ± 0.53"},
      {"sequence": "TAATTAAAAAATGAATAAATGAATAAATAAATAAAT [CACACA_negctrl_site838]", "gcPBM binding intensity (ln)": "8.59 ± 0.48"},
      {"sequence": "TATGAATATTGCATGTGTACCTATTATCCTTTTAAA [XGTACX_site4311]", "gcPBM binding intensity (ln)": "8.74 ± 0.42"},
      {"sequence": "ATAATTATTTTCCCGTGTACTTATTTTTTTCAAGTA [XGTACX_site8843]", "gcPBM binding intensity (ln)": "8.82 ± 0.44"},
      {"sequence": "TTAAAATATGTAGCTACACACACATAAACAAAATAA [CACACA_site8244]", "gcPBM binding intensity (ln)": "9.28 ± 0.42"},
      {"sequence": "TAATTATAATAATAACGTACATATATAAAATGGTGA [XGTACX_site8434]", "gcPBM binding intensity (ln)": "8.91 ± 0.37"},
      {"sequence": "TATATATATATATAGGTGCTATAATTTATATACACA", "gcPBM binding intensity (ln)": "9.19 ± 0.16"},
      {"sequence": "TGTAGTCTGGAGAAAAGTACACAGTATCTGGTAGCT [XGTACX_site2012]", "gcPBM binding intensity (ln)": "8.82 ± 0.46"},
      {"sequence": "TTTTTTTTTCTGAATTTATAATTCAAAAATATATAT [CACACA_negctrl_site300]", "gcPBM binding intensity (ln)": "8.16 ± 0.52"},
      {"sequence": "ATAATACCCATTATCTTACAACAAAATGCAAACAAA [CACACA_negctrl_site1037]", "gcPBM binding intensity (ln)": "8.74 ± 0.41"},
      {"sequence": "AACATAATATCATATACACACAAAAATATTGAAATA [CACACA_site2160]", "gcPBM binding intensity (ln)": "9.09 ± 0.37"},
      {"sequence": "AAAAAAAAAGAAAAACGTACGTTTATTTAATATATA [XGTACX_site4018]", "gcPBM binding intensity (ln)": "8.61 ± 0.48"},
      {"sequence": "TTATATAACTTTTCTAGTACTTGTATAAATTCCTAC [XGTACX_site3685]", "gcPBM binding intensity (ln)": "8.69 ± 0.54"},
      {"sequence": "AAAATTAGATTATGCACACACACTTAAAAATAATAA [CACACA_site1975]", "gcPBM binding intensity (ln)": "9.32 ± 0.34"},
      {"sequence": "AAGAACATATTATATACATGCATAATTCGATAGATT [TGCATGCA_site882]", "gcPBM binding intensity (ln)": "8.9 ± 0.35"},
      {"sequence": "CATTTTATTCTATATGCATGTTAAAAAATGTGTTGA [TGCATGCA_site128]", "gcPBM binding intensity (ln)": "8.58 ± 0.38"},
      {"sequence": "TAATAATAAAAAATACGTACATATTATTTATATATG [XGTACX_site853]", "gcPBM binding intensity (ln)": "8.62 ± 0.4"},
      {"sequence": "ATATATAAGAACATATATATTGGAAATATTGAATTT [XGTACX_negctrl_site121]", "gcPBM binding intensity (ln)": "8.59 ± 0.45"},
      {"sequence": "AATAAAAATATTATATGTACATATTTTAATATATAT [XGTACX_site1259]", "gcPBM binding intensity (ln)": "8.54 ± 0.39"},
      {"sequence": "TTTTATTTTTTCTATACATGCATGTCCAATTTTCTT [TGCATGCA_site304]", "gcPBM binding intensity (ln)": "9.28 ± 0.54"},
      {"sequence": "TTATGGTATAAAAAAATACACACTTATATATATTCT [CACACA_site488]", "gcPBM binding intensity (ln)": "8.73 ± 0.38"},
      {"sequence": "TTTATTATATGCACACGTACATATAATATATATATA [XGTACX_site4108]", "gcPBM binding intensity (ln)": "8.82 ± 0.33"},
      {"sequence": "TTTGCAACATATAAAAGTACAAATAATATATTTATT [XGTACX_site890]", "gcPBM binding intensity (ln)": "8.6 ± 0.41"},
      {"sequence": "ATAATAAATCATCATATTACATTTATCTTTGTTGGA [CACACA_negctrl_site849]", "gcPBM binding intensity (ln)": "8.6 ± 0.59"},
      {"sequence": "TACTTATTTTTATAGCATTTCACGGAGGTAGTAATA [CACACA_negctrl_site468]", "gcPBM binding intensity (ln)": "8.6 ± 0.39"}
    ]}
  ]
}
